Reference: the supplement of paper PMC4967469
A lower IC50 marks a more sensitive line; where the fit passes the top or lowest dose, that dose stands as a limit. For AUC the same curve is integrated over the 256-fold range of doses and scaled to a fraction: 1 means no effect, lower means more sensitive. Drugs with an entry number were screened twice under separate entries, and the two screens often disagree.

Compound: CS(=O)(=O)N1CCN(Cc2cc3nc(-c4cccc5[nH]ncc45)nc(N4CCOCC4)c3s2)CC1 [GDC0941]
Assay: Viability of human cancer cell lines after 72 h of drug (GDSC screen)
Conditions: screen: GDSC drug entry 1058
Description: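 Human cancer cell lines in 384-well plates, medium with 10% serum, drug for 72 h over a 256-fold dose range (nine 2-fold or five 4-fold steps up to the top dose). Adherent lines were fixed and stained with the nucleic acid dye Syto60, suspension lines read with resazurin; signal relative to control wells, capped at 0 and 100%. One two-parameter sigmoid per drug and line, fitted in a mixed model over all curves with the slope shared within a line.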

Cell Line | AUC | IC50 [nM]
CCRF-CEM (lymphoblastic leukaemia, suspension, top dose 4 µM) | 0.815 | 1760
SNU-449 (liver, adherent, top dose 4 µM) | 0.819 | 2540
NCI-H1648 (lung adenocarcinoma, adherent, top dose 2 µM) | 0.774 | 835
MKN7 (stomach, adherent, top dose 4 µM) | 0.745 | 1640
OMC-1 (cervix, adherent, top dose 4 µM) | 0.694 | 899
TOV-21G (ovary, adherent, top dose 4 µM) | 0.83 | 2820
KATOIII (stomach, semi-adherent, top dose 4 µM) | 0.838 | 2370
NCI-H1836 (small cell lung carcinoma, suspension, top dose 4 µM) | 0.988 | > 4000
TCCSUP (bladder, adherent, top dose 4 µM) | 0.853 | 3860
MES-SA (uterus, adherent, top dose 4 µM) | 0.825 | 1940
NB14 (neuroblastoma, adherent, top dose 4 µM) | 0.723 | 1020
DOK (head and neck, adherent, top dose 4 µM) | 0.457 | 180
SK-MG-1 (glioma, adherent, top dose 4 µM) | 0.534 | 311
SKN-3 (head and neck, adherent, top dose 4 µM) | 0.798 | 2310
A673 (rhabdomyosarcoma, adherent, top dose 4 µM) | 0.982 | > 4000
PANC-03-27 (pancreas, adherent, top dose 4 µM) | 0.737 | 1120
NCI-H526 (small cell lung carcinoma, suspension, top dose 4 µM) | 0.774 | 1510
SF295 (glioma, adherent, top dose 4 µM) | 0.805 | 2220
KYSE-50 (oesophagus, adherent, top dose 4 µM) | 0.969 | > 4000
G-361 (melanoma, adherent, top dose 4 µM) | 0.857 | 3040
TGBC11TKB (stomach, adherent, top dose 4 µM) | 0.938 | > 4000

Cell Line | AUC | IC50 [nM]
SK-MEL-2 (melanoma, adherent, top dose 4 µM) | 0.866 | 3790
MLMA (hairy cell leukaemia, semi-adherent, top dose 4 µM) | 0.921 | > 4000
OVISE (ovary, adherent, top dose 4 µM) | 0.461 | 190
SAS (head and neck, adherent, top dose 4 µM) | 0.91 | > 4000
TE-5 (oesophagus, adherent, top dose 4 µM) | 0.916 | > 4000
TK (B-cell lymphoma, suspension, top dose 4 µM) | 0.778 | 1480
NCI-H1755 (lung adenocarcinoma, adherent, top dose 4 µM) | 0.875 | > 4000
MZ7-mel (melanoma, adherent, top dose 4 µM) | 0.967 | > 4000
CRO-AP2 (B-cell lymphoma, suspension, top dose 4 µM) | 0.75 | 1160
KNS-81-FD (glioma, adherent, top dose 4 µM) | 0.924 | > 4000
U-118-MG (glioma, adherent, top dose 4 µM) | 0.902 | > 4000
TT2609-C02 (thyroid, adherent, top dose 4 µM) | 0.798 | 2050
KARPAS-45 (lymphoblastic leukaemia, suspension, top dose 4 µM) | 0.414 | 151
LAN-6 (neuroblastoma, adherent, top dose 4 µM) | 0.934 | > 4000
COLO-680N (oesophagus, adherent, top dose 4 µM) | 0.973 | > 4000
P31-FUJ (acute myeloid leukaemia, suspension, top dose 4 µM) | 0.969 | > 4000
GB-1 (glioma, adherent, top dose 4 µM) | 0.899 | > 4000
TYK-nu (ovary, adherent, top dose 4 µM) | 0.76 | 1510
OSC-20 (head and neck, adherent, top dose 2 µM) | 0.73 | 649
LOUCY (T-cell lymphoblastic leukaemia, suspension, top dose 4 µM) | 0.828 | 1870
MOLT-16 (T-cell lymphoblastic leukaemia, suspension, top dose 4 µM) | 0.962 | > 4000

Cell Line | AUC | IC50 [nM]
TE-4 (oesophagus, adherent, top dose 4 µM) | 0.787 | 1730
EFM-192A (breast, adherent, top dose 4 µM) | 0.667 | 772
COLO-684 (endometrium, suspension, top dose 4 µM) | 0.504 | 256
Hs939-T (melanoma, adherent, top dose 4 µM) | 0.773 | 1700
CS1 (bone, adherent, top dose 4 µM) | 0.825 | 2790
NCI-H1693 (lung adenocarcinoma, adherent, top dose 2 µM) | 0.944 | > 2000
H2731 (mesothelioma, adherent, top dose 4 µM) | 0.838 | 3290
RC-K8 (B-cell lymphoma, suspension, top dose 4 µM) | 0.993 | > 4000
SHP-77 (small cell lung carcinoma, semi-adherent, top dose 4 µM) | 0.992 | > 4000
NCI-H64 (small cell lung carcinoma, suspension, top dose 4 µM) | 0.901 | 2800
CCF-STTG1 (glioma, adherent, top dose 4 µM) | 0.804 | 2010
RCM-1 (large intestine, adherent, top dose 4 µM) | 0.856 | > 4000
EB2 (Burkitt lymphoma, suspension, top dose 4 µM) | 0.978 | > 4000
OVCA433 (ovary, adherent, top dose 4 µM) | 0.699 | 974
HUTU-80 (digestive system, adherent, top dose 4 µM) | 0.723 | 937
OCI-AML2 (acute myeloid leukaemia, suspension, top dose 4 µM) | 0.995 | > 4000
G-401 (kidney, adherent, top dose 4 µM) | 0.772 | 1700
PA-1 (ovary, adherent, top dose 4 µM) | 0.893 | 2930
SKN (uterus, adherent, top dose 4 µM) | 0.658 | 755
SLVL (B-cell lymphoma, suspension, top dose 4 µM) | 0.875 | > 4000
NCI-H2023 (lung adenocarcinoma, adherent, top dose 2 µM) | 0.851 | > 2000

Cell Line | AUC | IC50 [nM]
KNS-42 (glioma, adherent, top dose 4 µM) | 0.975 | > 4000
NAMALWA (Burkitt lymphoma, suspension, top dose 4 µM) | 0.685 | 746
NCI-H508 (large intestine, semi-adherent, top dose 4 µM) | 0.442 | 156
KARPAS-299 (anaplastic large cell lymphoma, suspension, top dose 4 µM) | 0.886 | 3120
NCI-H1792 (lung adenocarcinoma, adherent, top dose 4 µM) | 0.914 | > 4000
ME-180 (cervix, adherent, top dose 4 µM) | 0.684 | 840
DMS-79 (small cell lung carcinoma, suspension, top dose 4 µM) | 0.945 | > 4000
ML-2 (acute myeloid leukaemia, suspension, top dose 4 µM) | 0.712 | 913
23132-87 (stomach, adherent, top dose 4 µM) | 0.672 | 766
MZ1-PC (pancreas, adherent, top dose 4 µM) | 0.967 | > 4000
NCI-H1092 (small cell lung carcinoma, suspension, top dose 4 µM) | 0.938 | > 4000
DSH1 (bladder, adherent, top dose 4 µM) | 0.903 | > 4000
KYSE-520 (oesophagus, adherent, top dose 4 µM) | 0.818 | 3340
OAW-28 (ovary, adherent, top dose 2 µM) | 0.941 | > 2000
MOG-G-CCM (glioma, adherent, top dose 4 µM) | 0.792 | 2150
SH-4 (melanoma, adherent, top dose 4 µM) | 0.901 | > 4000
SAT (head and neck, adherent, top dose 4 µM) | 0.584 | 480
HSC-39 (stomach, suspension, top dose 4 µM) | 0.538 | 313
KP-3 (pancreas, adherent, top dose 4 µM) | 0.875 | > 4000
